Our source for the enrichment ratio values is a collection of fitness landscapes (doi:10.1126/science.1257360).

The list shows a part of the results. Some results are limits rather than exact numbers.

B1: PhoQ; a variant is named by its letters at X, in order, P23837 (parent)
chain: MKKLLRLFFPLSLRVRFLLATAAVVLVLSLAYGMVALIGYSVSFDKTTFRLLRGESNLFYTLAKWENNKLHVELPENIDKQSPTMTLIYDENGQLLWAQRDVPWLMKMIQPDWLKSNGFHEIEADVNDTSLLLSGDHSIQQQLQEVREDDDDAEMTHSVAVNVYPATSRMPKLTIVVVDTIPVELKSSYMVWSWFIYVLSANLLLVIPLLWVAAWWSLRPIEALAKEVRELEEHNRELLNPATTRELTSLVRNLNRLLKSERERYDKYRTTLTDLTHSLKTPLXXLQXXLRSLRSEKMSVSDAEPVMLEQISRISQQIGYYLHRASMRGGTLLSRELHPVAPLLDNLTSALNKVYQRKGVNISLDISPEISFVGEQNDFVEVMGNVLDNACKYCLEFVEISARQTDEHLYIVVEDDGPGIPLSKREVIFDRGQRVDTLRPGQGVGLAVAREITEQYEGKIVAGESMLGGARMEVIFGRQHSAPKDE

Variants of B1 are the subject of the assay. Put plainly: enrichment ratio after two sorts for PhoP signalling (ratio (wild type AVST 3.29)); higher = more functional. As to conditions: with PhoP (E. coli).
On to ETWL, for which the enrichment ratio was ≤ 0.25. The figure for EALN is ≤ 0.25; for SIYM it is 0.397; for FNND it is ≤ 0.25. For the variant EGLK, the enrichment ratio is ≤ 0.25.

Regarding HSWL, the enrichment ratio is ≤ 0.25.

Take RHNC: the enrichment ratio is ≤ 0.25. For the variant GMGM, the enrichment ratio was ≤ 0.25. Take LHSD: the enrichment ratio is ≤ 0.25.

As to NCVG, the enrichment ratio was ≤ 0.25. Turning to DRCW, the enrichment ratio was ≤ 0.25. To AEKG belongs ≤ 0.25; to IRLI, ≤ 0.25.

GIAK: the enrichment ratio is 4.42. On to NTGC, for which the enrichment ratio was ≤ 0.25. As for WGMF, the enrichment ratio was ≤ 0.25.

With ESEP, the enrichment ratio is ≤ 0.25. The figure for AFDH is ≤ 0.25; for NVDR it is ≤ 0.25; for CIYH it is ≤ 0.25. Take DNSM: the enrichment ratio was ≤ 0.25.

On to IMQH, for which the enrichment ratio is ≤ 0.25.

For the variant ALLA, the enrichment ratio stood at 0.346. On to VWNP, for which the enrichment ratio was ≤ 0.25. With WHTK, the enrichment ratio was ≤ 0.25. For the variant RPER, the enrichment ratio was ≤ 0.25. Turning to RTNS, the enrichment ratio is ≤ 0.25. To PYSG belongs ≤ 0.25. For KHTT, the enrichment ratio was ≤ 0.25. Regarding LDAL, the enrichment ratio was ≤ 0.25.

VRKD: the enrichment ratio is ≤ 0.25. In the case of YMYT, the enrichment ratio is ≤ 0.25. To AECD belongs 17; to RCTM, ≤ 0.25; to WWCP, ≤ 0.25.

For the variant WNDV, the enrichment ratio is ≤ 0.25.

YLFL: the enrichment ratio was ≤ 0.25. On to FVRT, for which the enrichment ratio is ≤ 0.25. Turning to PYVE, the enrichment ratio was ≤ 0.25.

In the case of PKHD, the enrichment ratio was ≤ 0.25. For IGDD, the enrichment ratio was ≤ 0.25.

For the variant LNFC, the enrichment ratio is ≤ 0.25. To QDWY belongs ≤ 0.25; to QLLF, ≤ 0.25.

GCHW: the enrichment ratio was ≤ 0.25. The figure for RVAG is ≤ 0.25. With GMEY, the enrichment ratio was ≤ 0.25.

Consider YSLP, for which the enrichment ratio is ≤ 0.25. With STMC, the enrichment ratio was 8.81. NRSL: the enrichment ratio was ≤ 0.25.

For the variant IQWD, the enrichment ratio was ≤ 0.25. Regarding KITV, the enrichment ratio was ≤ 0.25.

As for PGEC, the enrichment ratio was ≤ 0.25.

Consider VDYA, for which the enrichment ratio was ≤ 0.25.

For DESE, the enrichment ratio is ≤ 0.25.

Consider PGLP, for which the enrichment ratio was ≤ 0.25.

As to FHAR, the enrichment ratio is ≤ 0.25. In the case of YAKN, the enrichment ratio was ≤ 0.25. For the variant EQDF, the enrichment ratio is ≤ 0.25.

In the case of LGSR, the enrichment ratio was ≤ 0.25. As for IWQR, the enrichment ratio was ≤ 0.25. As to HTIN, the enrichment ratio was ≤ 0.25. To FEGA belongs ≤ 0.25; to DSEH, ≤ 0.25; to WYYK, ≤ 0.25. To HIAK belongs ≤ 0.25; to FCSD, ≤ 0.25. In the case of NLSP, the enrichment ratio is ≤ 0.25. Consider MCTW, for which the enrichment ratio was ≤ 0.25. As to VLGG, the enrichment ratio is ≤ 0.25. Consider INNH, for which the enrichment ratio is ≤ 0.25. In the case of DWVP, the enrichment ratio is ≤ 0.25.

Turning to MACV, the enrichment ratio is ≤ 0.25. On to FVFM, for which the enrichment ratio is ≤ 0.25. As for FWSK, the enrichment ratio was ≤ 0.25.

With PGAI, the enrichment ratio is ≤ 0.25. On to GSLQ, for which the enrichment ratio was 6.06. As to YRCP, the enrichment ratio is ≤ 0.25. As for IKWY, the enrichment ratio was ≤ 0.25. In the case of DPHT, the enrichment ratio was ≤ 0.25. The figure for PDKK is ≤ 0.25. On to VHVE, for which the enrichment ratio was ≤ 0.25.

As for PQQF, the enrichment ratio was ≤ 0.25. As for QGWI, the enrichment ratio was determined as 22.5. Regarding NKCT, the enrichment ratio was ≤ 0.25. In the case of VYKQ, the enrichment ratio was ≤ 0.25. As to WRVG, the enrichment ratio was ≤ 0.25.

As to QPFC, the enrichment ratio is ≤ 0.25. Regarding SGKG, the enrichment ratio was ≤ 0.25. As to SHWE, the enrichment ratio is ≤ 0.25. Consider SEDQ, for which the enrichment ratio is ≤ 0.25.

On to FLGA, for which the enrichment ratio is ≤ 0.25. Regarding DIEY, the enrichment ratio is ≤ 0.25. As for FYMA, the enrichment ratio is ≤ 0.25. With GQWV, the enrichment ratio was ≤ 0.25. On to TYAI, for which the enrichment ratio is ≤ 0.25. Regarding VRWA, the enrichment ratio was ≤ 0.25. As to ECDH, the enrichment ratio turned out to be 3.63. The figure for YHAG is ≤ 0.25; for RTWF it is ≤ 0.25; for IIAP it is ≤ 0.25. The figure for QGFD is ≤ 0.25.

Take TERL: the enrichment ratio was ≤ 0.25. Regarding ASFI, the enrichment ratio was 3.08. In the case of DLSM, the enrichment ratio is ≤ 0.25. As to QKKA, the enrichment ratio was ≤ 0.25. As to THPF, the enrichment ratio was ≤ 0.25. Take VQGG: the enrichment ratio was ≤ 0.25.

Take IEVD: the enrichment ratio is ≤ 0.25. As to DGSP, the enrichment ratio was ≤ 0.25. MICG: the enrichment ratio came out at 2.37. As to QYVI, the enrichment ratio is ≤ 0.25. Consider YDII, for which the enrichment ratio is ≤ 0.25. Consider LPGY, for which the enrichment ratio is ≤ 0.25.

Take PVRH: the enrichment ratio is ≤ 0.25. The figure for DGVL is ≤ 0.25; for DHAM it is ≤ 0.25. Take ELTA: the enrichment ratio was ≤ 0.25. Take EGDS: the enrichment ratio was ≤ 0.25. Turning to TGNF, the enrichment ratio was 1.29. Regarding HRNF, the enrichment ratio is ≤ 0.25. Consider AGGN, for which the enrichment ratio was ≤ 0.25. Turning to VIPL, the enrichment ratio is ≤ 0.25. As to WYDD, the enrichment ratio is ≤ 0.25.

For the variant PPHA, the enrichment ratio is ≤ 0.25.

For IQRN, the enrichment ratio was ≤ 0.25.

For the variant DMVM, the enrichment ratio is ≤ 0.25. Take GINM: the enrichment ratio was ≤ 0.25.

Take PIAN: the enrichment ratio is ≤ 0.25. For the variant RRME, the enrichment ratio is ≤ 0.25. Turning to MNWQ, the enrichment ratio is ≤ 0.25. The figure for RDCL is ≤ 0.25. Regarding IMSM, the enrichment ratio was ≤ 0.25. To RVNW belongs ≤ 0.25; to QDIM, ≤ 0.25. To YKCM belongs ≤ 0.25; to VWPP, ≤ 0.25; to YFTN, ≤ 0.25. GICL: the enrichment ratio turned out to be 9.48. As to NVEW, the enrichment ratio is ≤ 0.25.

Take MKLA: the enrichment ratio was ≤ 0.25. For DDIN, the enrichment ratio was ≤ 0.25.

For TELD, the enrichment ratio was 13.4. In the case of MECY, the enrichment ratio turned out to be 4.09. With TNIR, the enrichment ratio was ≤ 0.25. Turning to AYSK, the enrichment ratio is ≤ 0.25. The figure for LAHP is ≤ 0.25; for RMDS it is ≤ 0.25. In the case of KYHW, the enrichment ratio was ≤ 0.25. With DFCC, the enrichment ratio was ≤ 0.25.

As for RFRY, the enrichment ratio was ≤ 0.25.

AHPT: the enrichment ratio is ≤ 0.25. To HGHM belongs ≤ 0.25.
